One molecule from patent US20260242504A1 (CHIOME BIOSCIENCE, published 2026) can be followed below.

The target in experiment [1] is T1, 5T4 on 5T4-expressing CHO-K1 cells (UniProt Q13641 32-420).
T1 sequence (looked up): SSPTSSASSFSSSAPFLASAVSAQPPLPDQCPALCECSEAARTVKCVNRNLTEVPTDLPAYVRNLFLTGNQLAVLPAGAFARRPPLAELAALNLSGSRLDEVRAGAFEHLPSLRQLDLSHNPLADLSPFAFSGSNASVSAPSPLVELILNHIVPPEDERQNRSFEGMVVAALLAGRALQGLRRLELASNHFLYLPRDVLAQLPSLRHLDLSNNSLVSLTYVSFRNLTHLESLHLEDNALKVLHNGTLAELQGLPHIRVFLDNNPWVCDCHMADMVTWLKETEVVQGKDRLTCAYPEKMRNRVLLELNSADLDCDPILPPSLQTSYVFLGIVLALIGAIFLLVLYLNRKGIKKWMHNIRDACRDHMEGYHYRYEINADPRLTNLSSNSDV
In words: cell-based or functional assay.

In experiment [2] the target is T2, recombinant human PD-L1/Fc (human, UniProt Q9NZQ7 fragment, biotinylated in the competitive ELISA (sites not given)).
T2 construct: Bought from R&D Systems; also called recombinant PD-L1 protein; biotinylated PD-L1 ligand; not shown: Fc part of the bought fusion
Briefly: ELISA, immobilized recombinant human PD-L1/Fc, 0-500 nM (N=2). As to the method:
The binding affinity of purified 53L10-M13 to recombinant PD-L1 protein was examined by ELISA (FIG. 16). A recombinant human PD-L1/Fc protein (R&D Biosystems) was immobilized in a 96-well plate using the same method as that performed in Example 4. According to the procedure described in “Materials and Methods” later, the binding assay of 53L10-M13 and 53L10 to human PD-L1 protein was performed at increasing concentrations (0-500 nM). […] The curve showing the binding affinity of 53L10-M13 to PD-L1 overlapped with the curve showing the binding affinity of 53L10 (●) to PD-L1.

Experiment [3] concerns the target T3, recombinant human 5T4 protein (5T4/His) (human, UniProt Q13641 32-355).
T3 construct: also called Human 5T4/His; recombinant 5T4; not shown: His tag of the bought protein
T3 sequence: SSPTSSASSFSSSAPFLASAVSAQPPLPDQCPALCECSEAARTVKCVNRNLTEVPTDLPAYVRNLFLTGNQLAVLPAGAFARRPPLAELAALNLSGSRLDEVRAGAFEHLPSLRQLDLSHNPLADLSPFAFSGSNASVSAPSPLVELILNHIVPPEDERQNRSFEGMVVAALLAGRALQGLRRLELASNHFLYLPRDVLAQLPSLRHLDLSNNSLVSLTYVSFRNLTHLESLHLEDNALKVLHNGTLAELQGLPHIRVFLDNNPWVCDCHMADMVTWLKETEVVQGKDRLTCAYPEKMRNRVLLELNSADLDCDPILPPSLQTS
Briefly: ELISA, immobilized recombinant human 5T4, 0-500 nM (N=2). As to the method: The binding affinity of purified 53L10-M13 to 5T4 antigen was examined by ELISA (FIG. 14). A recombinant human 5T4 protein (ACRO Biosystems) was immobilized in a 96-well plate using the same method as that performed in FIG. 2 (Example 1). […] The curve showing the binding affinity of 53L10-M13 to 5T4 overlapped with the curve showing the binding affinity of 53L10 (●) to 5T4. The EC₅₀ values were 0.58 nM for 53L10-M13 and 0.53 nM for 53L10 (FIG. 14B).
In general terms: ELISA stands for enzyme-linked immunosorbent assay.

Chain of recombinant human PD-L1/Fc (Q9NZQ7 19-239 limits assumed): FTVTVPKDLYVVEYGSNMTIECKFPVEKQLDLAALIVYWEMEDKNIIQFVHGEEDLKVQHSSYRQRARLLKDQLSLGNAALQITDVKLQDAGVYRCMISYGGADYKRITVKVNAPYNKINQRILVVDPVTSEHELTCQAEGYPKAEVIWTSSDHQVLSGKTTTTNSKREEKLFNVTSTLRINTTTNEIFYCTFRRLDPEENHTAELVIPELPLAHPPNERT

B1: 53L10 tribody (other)
chain 1: QVQLVQSGAEVKKPGASVKVSCKASGYSFTSYYMHWVKQSPGQGLEWIGRINPNNGVTLYNQKFKDRVTMTRDTSISTAYMELSRLRSDDTAVYYCARSTMITNYVMDYWGQGTLVTVSSASTKGPSVFPLAPSSKSTSGGTAALGCLVKDYFPEPVTVSWNSGALTSGVHTFPAVLQSSGLYSLSSVVTVPSSSLGTQTYICNVNHKPSNTKVDKKVEPKSCDKTHTGPGGGSPGQVQLVQSGAELKKPGASVKVSCKASGYTFTRYTMHWVRQAPGQCLEWMGYINPSRGYTNYNQKFKDKATLTADKSTSTAYMELRSLRSDDTAVYYCARYYDDHYSLDYWGQGTLVTVSSASGGGGSGGGGSGGGGSAGDIQLTQSPSILSASVGDRVTITCRASSSVSYMNWYQQKPGKAPKRWIYDTSKVASGVPYRFSGSGSGTEYTLTISSMQPEDFATYYCQQWSSNPLTFGCGTKVEIKSG
chain 2: DIVMTQSPDSLAVSLGERATINCKASQSVSNDVAWYQQKPGQPPKLLIYYTSSRYAGVPDRFSGSGSGTDFTLTISSLQAEDVAVYYCQQDYNSPPTFGGGTKLEIKRTVAAPSVFIFPPSDEQLKSGTASVVCLLNNFYPREAKVQWKVDNALQSGNSQESVTEQDSKDSTYSLSSTLTLSKADYEKHKVYACEVTHQGLSSPVTKSFNRGECGPGGGSPG[about 100 residues not given here]SKWELVDPYGNWGQGTMVTVSSGGGGSGGGGSGGGGSNFMLTQPHSVSESPGKTITISCTRSSGSIAGNYVQWYQQRPGSAPIIVIYEDNQRPSGVPDRFSGSIDSSSNSASLTISRLKTEDEADYYCQSYEASNVVFGGGTKLTVLSG
notes: Trispecific tribody, a heterodimer; L chain derivative: VL(5T4)-CL-scFv(10.12); also called 5T4xCD3xPD-L1
Take B1: in experiment [1], the “EC50 of luciferase activity, T cell activation bioassay (NFAT) with CHO-5T4 target cells” value was found to be 0.01 nM. Further, the half-maximal effective concentration (EC50) in experiment [2] is 34.4 nM; in experiment [3], 0.53 nM.

Usually EC50 stands for the concentration needed to bring the measured effect to its halfway point.
